Reference: the supplement of paper PMC9446081
About 220 (0.56%) of roughly 39,000 compounds showed activity. Some of the results follow.

test system: Escherichia coli K-12 BW25113; experiment: relative growth (OD600 normalised to plate interquartile mean) (fraction); higher = less growth inhibition, active = 0.2 or less; conditions: 50 µM; LB; incubation time: overnight (16-24 h)
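Further: static incubation at 37 °C against the wild-type strain, values averaged over two biological replicates.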

Q: With `C[C@@H]1CCCCO[C@H](CN(C)Cc2ccc(C(F)(F)F)cc2)[C@@H](C)CN([C@@H](C)CO)C(=O)c2cc(NC(=O)CCCN(C)C)ccc2O1` as the molecule, how does the relative growth read?
A: The relative growth was inactive: 0.974.

Q: `COC(=O)c1c2oc(c1C(=O)OC)C(=O)N(C)Cc1cn(nn1)C[C@@H](Cc1ccccc1)NC(=O)N[C@H](CO)CC2` was tested. Which relative growth did it give?
A: Its relative growth is inactive: 1.

Q: For `C[C@H]1CCCCO[C@H](CN(C)Cc2ccncc2)[C@@H](C)CN([C@@H](C)CO)C(=O)c2cc(NC(=O)Nc3ccc4c(c3)OCO4)ccc2O1`, which relative growth is on record?
A: Its relative growth is inactive: 0.976.

Q: `C[C@H](CO)N1C[C@H](C)[C@H](CN(C)Cc2ccc(-c3ccccc3)cc2)Oc2c(NS(=O)(=O)c3ccc(F)cc3)cccc2C1=O` was tested. Which relative growth did it give?
A: The relative growth was inactive: 0.995.

Q: With `C[C@H]1CN([C@@H](C)CO)C(=O)c2cccc(NC(=O)CCCCCC(=O)Nc3ccccc3N)c2O[C@@H]1CN(C)CC1CCCCC1` as the molecule, how does the relative growth read?
A: The relative growth was inactive: 0.981.

Q: `COc1ccc(CN(C)C[C@H]2OCCCC[C@H](C)Oc3ccc(NS(=O)(=O)c4ccc(OC)cc4)cc3C(=O)N([C@H](C)CO)C[C@@H]2C)cc1` was tested. Which relative growth did it give?
A: Its relative growth is inactive: 1.01.

Q: With `CCS(=O)(=O)NCC[C@H]1CC[C@H](NS(=O)(=O)c2ccccc2C)[C@@H](CO)O1` as the molecule, how does the relative growth read?
A: Its relative growth is inactive: 0.989.

Q: Which relative growth does the source give for `COc1ccc(CN(C)C[C@@H]2Oc3c(NC(=O)c4cnccn4)cccc3C(=O)N([C@@H](C)CO)C[C@H]2C)cc1` here?
A: The relative growth was inactive: 0.992.

Q: Which relative growth does the source give for `C[C@H](CO)N1C[C@H](C)[C@H](CN(C)S(=O)(=O)c2cn(C)cn2)Oc2ncc(-c3cccc(C(F)(F)F)c3)cc2C1=O` here?
A: The relative growth was inactive: 1.06.

Q: `C[C@H](CO)N1C[C@H](C)[C@@H](CN(C)C(=O)Nc2ccc3c(c2)OCO3)Oc2c(NC(=O)C3CCOCC3)cccc2C1=O` was tested. Which relative growth did it give?
A: The relative growth was inactive: 0.958.

Q: How did the relative growth turn out when `COc1ccc(S(=O)(=O)N(C)C[C@@H]2OCCCC[C@H](C)Oc3ccc(NC(=O)Nc4c(C)noc4C)cc3C(=O)N([C@H](C)CO)C[C@H]2C)cc1` was run?
A: The relative growth was inactive: 0.992.

Q: How did the relative growth turn out when `C[C@@H]1CN([C@@H](C)CO)C(=O)c2cc(NC(=O)Nc3ccc(F)cc3)ccc2O[C@@H]1CN(C)S(=O)(=O)c1cn(C)cn1` was run?
A: The relative growth was inactive: 0.989.

Q: With `COc1ccc(CN(C)C[C@H]2OCCCC[C@@H](C)Oc3ccc(NS(=O)(=O)c4ccccc4)cc3C(=O)N([C@H](C)CO)C[C@@H]2C)cc1` as the molecule, how does the relative growth read?
A: Its relative growth is inactive: 0.973.

Q: For `C[C@@H]1CCCCO[C@H](CN(C)Cc2ccc(C(F)(F)F)cc2)[C@H](C)CN([C@H](C)CO)C(=O)c2cc(NC(=O)NC3CCCCC3)ccc2O1`, which relative growth is on record?
A: The relative growth was inactive: 0.912.

Q: `C[C@H]1CCCCO[C@@H](CN(C)Cc2ccc(C(=O)Nc3ccccc3N)cc2)[C@@H](C)CN([C@@H](C)CO)C(=O)c2cc(N(C)C)ccc2O1` was tested. Which relative growth did it give?
A: Its relative growth is inactive: 0.998.

Q: Which relative growth does the source give for `CNC(=O)[C@@]12CCC3(CCN(C(=O)COC)CC3)[C@H]1CN(S(C)(=O)=O)C2` here?
A: Its relative growth is inactive: 1.05.

Q: `C[C@@H]1CN([C@@H](C)CO)S(=O)(=O)c2ccc(C#Cc3ccccc3)cc2O[C@@H]1CN(C)C(=O)c1ccccn1` was tested. Which relative growth did it give?
A: Its relative growth is inactive: 1.03.

Q: Which relative growth does the source give for `Cc1ccc2ncccc2c1` here?
A: The relative growth was inactive: 1.01.

Q: How did the relative growth turn out when `Cc1noc(C)c1S(=O)(=O)N(C)C[C@@H]1OCCCC[C@H](C)Oc2ccc(NC(=O)Nc3ccc(F)cc3)cc2C(=O)N([C@H](C)CO)C[C@H]1C` was run?
A: Its relative growth is inactive: 1.05.

Q: With `C[C@H](CO)N1C[C@H](C)[C@@H](CN(C)Cc2ccc(C(F)(F)F)cc2)Oc2ccc(NC(=O)CCCCCC(=O)Nc3ccccc3N)cc2CC1=O` as the molecule, how does the relative growth read?
A: The relative growth was inactive: 1.01.

Q: With `O=CC(O)C(O)C(O)CO` (stereo unspecified) as the molecule, how does the relative growth read?
A: The relative growth was inactive: 1.02.

Q: With `C[C@@H]1CN([C@H](C)CO)C(=O)c2ccccc2-c2ccccc2CO[C@H]1CN(C)C(=O)Nc1cccc(F)c1` as the molecule, how does the relative growth read?
A: The relative growth was inactive: 1.01.

Q: `C[C@@H]1COCCN1` was tested. Which relative growth did it give?
A: Its relative growth is inactive: 0.934.

Q: `C[C@H]1CN([C@@H](C)CO)S(=O)(=O)c2ccc(C#CC(C)(C)O)cc2O[C@@H]1CN(C)C(=O)CN(C)C` was tested. Which relative growth did it give?
A: Its relative growth is inactive: 1.

Q: How did the relative growth turn out when `COc1cc(CN)cc(OC)c1OC` was run?
A: Its relative growth is inactive: 1.

Q: `CN(CCN)C1CCCCC1` was tested. Which relative growth did it give?
A: Its relative growth is inactive: 0.987.

Q: For `COc1ccccc1S(=O)(=O)N[C@H]1C=C[C@@H](CC(=O)N2CCOCC2)O[C@@H]1CO`, which relative growth is on record?
A: The relative growth was inactive: 1.

Q: For `C[C@H](CO)N1C[C@H](C)[C@H](CN(C)S(=O)(=O)c2ccc(Cl)cc2)Oc2ccc(NC(=O)C3CC3)cc2C1=O`, which relative growth is on record?
A: The relative growth was inactive: 0.997.

Q: `COC(CNC(=O)C1CCN(S(=O)(=O)c2cccc3nsnc23)CC1)OC` was tested. Which relative growth did it give?
A: Its relative growth is inactive: 0.942.

Q: For `O=S(=O)(NCCCCN(C/C=C/c1ccccc1)C/C=C/c1ccccc1)c1cccc2cnccc12`, which relative growth is on record?
A: The relative growth was inactive: 0.966.

Q: `Cc1noc(C)c1S(=O)(=O)Nc1ccc2c(c1)C(=O)N([C@@H](C)CO)C[C@H](C)[C@@H](CN(C)CC1CCCCC1)OCCCC[C@@H](C)O2` was tested. Which relative growth did it give?
A: Its relative growth is inactive: 0.969.

Q: Which relative growth does the source give for `O=C(OC[C@H]1O[C@@H](OC(=O)c2cc(O)c(O)c(O)c2)[C@H](O)[C@@H](OC(=O)c2cc(O)c(O)c(O)c2)[C@@H]1O)c1cc(O)c(O)c(O)c1` here?
A: Its relative growth is inactive: 0.641.

Q: How did the relative growth turn out when `CC(=O)c1c(O)cc(O)cc1O` was run?
A: Its relative growth is inactive: 0.863.

Q: For `C[C@H](CO)N1C[C@H](C)[C@H](CN(C)S(=O)(=O)c2cccs2)Oc2ccc(NC(=O)CCC(F)(F)F)cc2CC1=O`, which relative growth is on record?
A: The relative growth was inactive: 1.04.

Q: For `C[C@@H]1CCCCO[C@H](CN(C)S(=O)(=O)c2ccccc2)[C@H](C)CN([C@@H](C)CO)C(=O)c2cc(NC(=O)Nc3ccc(F)cc3)ccc2O1`, which relative growth is on record?
A: Its relative growth is inactive: 1.02.

Q: How did the relative growth turn out when `COC(=O)[C@@]12O[C@@H]1[C@H](O[C@@H]1O[C@H](CO)[C@@H](O)[C@H](O)[C@H]1O)C[C@H]1[C@]3(C)C[C@@H](c4ccoc4)OC(=O)[C@H]3CC[C@]12C` was run?
A: The relative growth was inactive: 1.01.

Q: For `C[C@@H]1CCCCO[C@@H](CN(C)Cc2ccc(Cl)c(Cl)c2)[C@@H](C)CN([C@H](C)CO)C(=O)c2cc(NC(=O)CCCCCC(=O)Nc3ccccc3N)ccc2O1`, which relative growth is on record?
A: Its relative growth is inactive: 1.01.

Q: With `C[C@]1(C(=O)NCc2ccccc2)c2ccccc2C(=O)N(Cc2ccc(OC(F)(F)F)cc2)[C@H]1c1ccc(CO)cc1` as the molecule, how does the relative growth read?
A: Its relative growth is inactive: 0.983.

Q: With `C[C@@H]1C[C@H](C)CN(Cc2nc3c(c(=O)n(C)c(=O)n3C)n2CC(N)=O)C1` as the molecule, how does the relative growth read?
A: Its relative growth is inactive: 1.03.

Q: Which relative growth does the source give for `C[C@H](CO)N1C[C@H](C)[C@H](CN(C)C(=O)Nc2ccc(F)cc2)Oc2ccc(NS(=O)(=O)c3cn(C)cn3)cc2CC1=O` here?
A: Its relative growth is inactive: 1.02.

Q: How did the relative growth turn out when `CS(=O)(=O)N1[C@@H]2c3ccc(-c4cccc(F)c4)c(=O)n3C[C@H]1[C@H](CO)[C@H]2C(=O)N1CCOCC1` was run?
A: Its relative growth is inactive: 0.977.

Q: Which relative growth does the source give for `COc1ccc(-c2cnc3c(c2)C(=O)N([C@H](C)CO)C[C@H](C)[C@H](CN(C)C(=O)Cc2ccccn2)O3)cc1` here?
A: Its relative growth is inactive: 1.01.

Q: With `c1cn(CCN2CCNCC2)cn1` as the molecule, how does the relative growth read?
A: Its relative growth is inactive: 0.838.

Q: With `C[C@@H]1CN([C@H](C)CO)S(=O)(=O)c2ccc(/C=C/c3ccccc3)cc2O[C@H]1CN(C)C(=O)Nc1cc(F)ccc1F` as the molecule, how does the relative growth read?
A: Its relative growth is inactive: 1.02.

Q: With `C=CC[C@@H](CC(=O)N(CCO)Cc1ccccc1)C(=O)N[C@@H](COC(=O)[C@H](CC=C)CC(=O)OC(C)(C)C)Cc1c[nH]c2ccccc12` as the molecule, how does the relative growth read?
A: Its relative growth is inactive: 1.12.

Q: Which relative growth does the source give for `C[C@@H]1CCCCO[C@@H](CN(C)S(=O)(=O)c2ccc(Cl)cc2)[C@@H](C)CN([C@@H](C)CO)C(=O)c2cc(NS(=O)(=O)c3cccs3)ccc2O1` here?
A: Its relative growth is inactive: 1.02.

Q: Which relative growth does the source give for `COC(=O)c1ccc2c(c1)no[n+]2[O-]` here?
A: Its relative growth is inactive: 1.01.

Q: How did the relative growth turn out when `C[C@@H]1CCCCO[C@@H](CN(C)C(=O)Cc2ccccc2)[C@H](C)CN([C@H](C)CO)C(=O)c2cc(NC(=O)Cc3ccccc3)ccc2O1` was run?
A: The relative growth was inactive: 1.02.

Q: For `Cc1cc(C(=O)Nc2cccc3c2O[C@@H](CN(C)S(C)(=O)=O)[C@@H](C)CN([C@@H](C)CO)C3=O)n(C)n1`, which relative growth is on record?
A: Its relative growth is inactive: 1.

Q: For `CC1(C)CCC2=C(O1)C(=O)c1ccccc1C2=O` [alpha-LAPACHONE], which relative growth is on record?
A: The relative growth was inactive: 1.01.

Q: Which relative growth does the source give for `C[C@@H]1CN([C@@H](C)CO)C(=O)c2cc(NC(=O)Nc3ccc(C(F)(F)F)cc3)ccc2O[C@@H]1CN(C)C(=O)NC1CCCCC1` here?
A: Its relative growth is inactive: 1.03.

Q: How did the relative growth turn out when `COc1ccc(S(=O)(=O)N(C)C[C@@H]2OCc3cn(nn3)CCCC(=O)N([C@H](C)CO)C[C@H]2C)cc1` was run?
A: Its relative growth is inactive: 0.983.

Q: `COCCN1C[C@H](C(=O)O)CC1=O` was tested. Which relative growth did it give?
A: Its relative growth is inactive: 0.986.

Q: Which relative growth does the source give for `COc1ccc(S(=O)(=O)Nc2ccc3c(c2)C(=O)N([C@@H](C)CO)C[C@@H](C)[C@H](CN(C)C(=O)Nc2ccc(C(F)(F)F)cc2)OCCCC[C@@H](C)O3)cc1` here?
A: Its relative growth is inactive: 1.02.

Q: How did the relative growth turn out when `C/C1=C/[C@@]23O[C@@]2(C[C@H](C)[C@H]3O[C@H]2O[C@@H](CO)[C@@H](O)[C@@H](O)[C@@H]2O)C(=O)[C@H](C)[C@H](O)[C@@H]2C([C@H](O)[C@@H]1O)C2(C)C` (stereo partly specified) was run?
A: The relative growth was inactive: 1.

Q: With `C[C@H](CO)N1C[C@H](C)[C@@H](CN(C)S(C)(=O)=O)Oc2ccc(NS(=O)(=O)c3ccccc3)cc2C1=O` as the molecule, how does the relative growth read?
A: The relative growth was inactive: 0.842.

Q: For `C[C@H]1CN([C@@H](C)CO)C(=O)Cc2cc(NC(=O)CCC(F)(F)F)ccc2O[C@H]1CN(C)S(=O)(=O)c1cccs1`, which relative growth is on record?
A: Its relative growth is inactive: 1.01.

Q: How did the relative growth turn out when `Cc1ccc(S(=O)(=O)N(C)C[C@H]2OCCCC[C@H](C)Oc3ccc(NS(=O)(=O)c4ccc(F)cc4)cc3C(=O)N([C@@H](C)CO)C[C@@H]2C)cc1` was run?
A: Its relative growth is inactive: 1.01.

Q: `COCC(=O)Nc1ccc2c(c1)C(=O)N(C)[C@@H]1CC[C@@H](CC(=O)NC3Cc4ccccc4C3)O[C@@H]1CO2` was tested. Which relative growth did it give?
A: Its relative growth is inactive: 1.

Q: How did the relative growth turn out when `Nc1ccc(C(=O)N2CCOCC2)cc1` was run?
A: The relative growth was inactive: 1.02.

Q: How did the relative growth turn out when `C[C@@H]1CCCCO[C@H](CN(C)C(=O)C2CCCCC2)[C@H](C)CN([C@@H](C)CO)C(=O)c2cc(NC(=O)Nc3ccccc3)ccc2O1` was run?
A: Its relative growth is inactive: 0.994.
